The values that follow come from patent US20250313648A1, “Binders of Chondroitin Sulfate Proteoglycan (CSPG4) Polypeptides” (Regents of the University of Minnesota, priority 2021, published 2025).

Experiment [1] deals with HEY Mock and CRISPR cells. The experiment can be described thus: ADCC, DELFIA EuTDA cytotoxicity assay with NK92 cell lines. The format is cell-based, human. The settings on record: NK cells expressing wild-type CD16a or CD16a/S197P, 1:1 effector:target ratio, 4 hrs. As for the experimental part: (§1) FIGS. 11A-11C. FIG. 11A) HEY Mock and CRISPR cells were treated with the indicated anti-CSPG4 monoclonal antibodies or normal mouse IgG1 (nmIgG1). The indicated NK92 cell lines were added at a 1:1 effector:target ratio and ADCC determined at 4 hrs using the DELFIA EuTDA cytotoxicity assay following the manufacturer's protocol. Bars represent the percent specific cell lysis for triplicate samples+/−s.e.m. *p<0.05, ****p<0.0001 vs. nmIgGl control by two-way ANOVA with Dunnett's multiple comparisons test. ADCC of spheroids. FIG. 111B) A repeat of the experiment of FIG. 11A. **p=0.0088, ***p<0.0009 by 2 way ANOVA with Dunnett's multiple comparisons test compared to nmIgGl control; ** and ***p<0.0009 vs no Ab control. ADCC of spheroids. FIG. 11C) OVCAR8 Mock and CRISPR cells were treated with the indicated anti-CSPG4 monoclonal antibodies or normal mouse IgG1 (nmIgGl). The indicated NK92 cell lines were added at a 1:1 effector:target ratio and ADCC determined at 4 hrs using the DELFIA EuTDA cytotoxicity assay following the manufacturer's protocol. […]
(§2) An additional anti-CSPG4 antibody, 8G5A5, was identified using the methods of Example 6. […] The indicated NK92 cell lines were added at a 1:1 effector:target ratio and ADCC determined at 4 hrs using the DELFIA EuTDA cytotoxicity assay following the manufacturer's protocol. […]

Experiment [2] deals with OVCAR8 ovarian cancer cells. The experiment is described as above. The format is cell-based, human. The settings on record: 1:1 effector:target ratio, 4 hrs. Here is the method:
as §1, §2

B1: 8G5A6: anti-CSPG4 mouse antibody; heavy chain variable SEQ ID NO:24, light chain variable SEQ ID NO:32 (antibody, V domains shown)
VH: EVQLQQSGPDLVKPGASVKISCKASGYSFTVYYMNWVKQSHGKSLEWIGRIDPNDGGASYNQKFKGKAILTVDKSSGTAYMELRSLTSEDSAVYYCARRDYYGSKDYWGQGTTLTVSS
VL: DIVLTQSPASLAVSLGQRATISCKASQSVDYDGDSYMNWYQQKPGQPPKLLIYAASNLESGIPARFSGSGSGTDFTLNIHPVEEEDAAIYYCQQSNEDPWTFGGGTKLEIKR
Regarding B1, the “specific ADCC of CSPG4 positive EOC cells” value in experiment [1] is given as “can mediate specific ADCC”. Also, in experiment [2], the “specific ADCC of CSPG4 positive cells” value is given as “able to mediate specific ADCC”.
